Measurements from PubChem BioAssay AID743262 (National Center for Advancing Translational Sciences (NCATS), 2014).
In all, about 1,300 compounds went through this assay and about 25 (2%) were called active. Inconclusive results (about 9%) are left out. The call rests on the fitted dose curve; in most records, active means well fitted activation curve with a large enough effect; inconclusive means small, poorly fitted or top-dose-only effect; inactive means flat fitted curve, though single readings scatter. The list shows a part of the results.

Target: Glucagon-like peptide 1 receptor (Homo sapiens) (UniProt P43220)
Test: qHTS of GLP-1 Receptor Agonists: Hit Validation; on activation: % of control where 0% means no effect
Conditions: HEK293 GLP-1R, cAMP-response luciferase, 4-6 h; series mostly up to 46.1 µM; activation: at the top concentration
Description: The overall goal of this project was to develop a novel assay for discovering small molecule ligands for class B1 G protein-coupled receptors (GPCRs). Very few agonists (or inverse agonists) with generally weak activity for this entire group of physiologically important receptors are known to date. To establish proof-of-principle that this critical bottleneck can be overcome with a suitable screening approach, our studies focused on the class B1 receptor for glucagon-like peptide-1 (GLP-1R), a potential therapeutic target for diabetes and neurodegenerative disease. The assay was developed in a "mix and measure" format using a cell-based functional readout. Toward this goal, stably transfected HEK293 cell clones were established that co-express (i) a cAMP-responsive luciferase reporter gene, and (ii) GLP-1Rs that upon ligand interaction either stimulate (agonists) or inhibit (inverse agonists) luciferase activity. In different cell lines to be used for screening, expressed GLP-1Rs are specifically optimized for high sensitivity detection of either weak agonists (hypersensitive receptor) or inverse agonists (constitutively active receptor mutant). In addition, control cell lines were developed that express either the cAMP-responsive reporter gene without recombinant GLP-1Rs (enabling initial exclusion of GLP-1R independent effects of candidate probes), or the reporter gene together with wild type GLP-1Rs (for confirmation of probe activity at this receptor), or the reporter gene in combination with the constitutively active orphan receptor GPR119 (enabling initial exclusion of GLP-1R independent inhibitory effects of candidate inverse agonists). To that end, this assay was optimized for 1536-well format and screened against the MLSMR. NIH Molecular Libraries Probe Production Network [MLPCN] NIH Chemical Genomics Center [NCGC] Grant: NS064851 PI Name: Martin Beinborn, Tufts Medical Center
In a white solid 1536-well plate, 6 uL of cells are dispensed in DMEM without phenol red, 10% Nu serum, and 1% pen-strep medium. The plates are then incubated for 12 hours at 37 deg C at 5% CO2 before 23 nL of compounds are added. After a 4-6 hr incubation at37 deg C and 5% CO2, 3 uL of detection reagent are added and after a 12 min incubation at RT, a luminescent read is obtained on the ViewLux.
Potency means the concentration at half of the fitted maximal effect.

UniProt P43220, sequence (P43220 whole entry, looked up): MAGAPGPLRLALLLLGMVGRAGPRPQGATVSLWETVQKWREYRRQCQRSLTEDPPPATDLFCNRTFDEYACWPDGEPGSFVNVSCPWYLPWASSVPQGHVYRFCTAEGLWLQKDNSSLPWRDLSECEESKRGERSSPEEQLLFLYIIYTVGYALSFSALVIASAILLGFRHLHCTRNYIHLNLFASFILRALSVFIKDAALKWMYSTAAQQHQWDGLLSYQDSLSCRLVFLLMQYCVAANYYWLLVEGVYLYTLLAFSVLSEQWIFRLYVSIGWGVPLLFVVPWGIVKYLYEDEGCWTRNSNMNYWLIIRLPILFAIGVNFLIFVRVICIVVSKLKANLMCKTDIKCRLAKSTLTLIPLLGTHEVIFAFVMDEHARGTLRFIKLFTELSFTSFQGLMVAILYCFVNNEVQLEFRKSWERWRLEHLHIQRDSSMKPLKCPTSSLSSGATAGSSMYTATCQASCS

activation, inactive:
O=S(=O)(Nc1ccc(-c2ccc3nncn3n2)cc1)c1cccc(F)c1 29.4%
COc1cc2c(cc1OC)-c1cc(NC3CCCC3)nc(=O)n1CC2 27%
COC(=O)c1oc2ccc(Br)cc2c1-n1cccc1 -0.591%
CCCOc1ccc(S(=O)(=O)NCCN2CCOCC2)c2ccccc12 0.326%
Cc1ccc(/C=C/C(=O)N2CCc3ccccc3C2)cc1 1.91%
Cc1ccnc(NC(=O)C23CC4CC(CC(C4)C2)C3)c1 -0.29%
CCCCN=C1NN=C(c2cccc([N+](=O)[O-])c2)CS1 4.33%
Nc1nc(SCc2ccccc2)cc(SCc2ccccc2)n1 13.2%
CN(C)S(=O)(=O)c1ccc(C(=O)Nc2ccc(OCC(=O)N3CCOCC3)cc2)cc1 -0.668%
COc1cc2c(cc1OC)C1=C(C#N)CCC(=NC(=O)c3ccc(Cl)cc3)N1CC2 14.6%
CCOC(=O)c1c(NC(=O)CNCCO)sc(C)c1C 2.11%
COc1ccc(CNC(C)C(=O)Nc2ccc3ccccc3c2)cc1OC (configuration not stated) 0.262%
O=C(c1ccco1)N1N=C(c2ccc(Br)cc2)CC1(O)C(F)(F)F (configuration not stated) 6.22%
O=c1c2c3c(sc2nc2n1CCC2)CCCCC3 -0.423%
COc1ccc(C2=Nn3c(nnc3-c3ccccc3)SC2)cc1OC 19.1%
COc1ccc(CSc2nnc3[nH]c(=O)cc(N)n23)cc1 2.2%
CCCc1nc(Nc2nc3ccccc3o2)nc(C)c1C(=O)OCC -0.429%
C=C(C)CSc1nc2c(c(=O)[nH]c(=O)n2C)n1Cc1ccccc1 6.81%
COc1ccc(CNC(=O)CN2CCC(NC(=O)c3ccccc3C)CC2)cc1 0.0876%
COC(=O)c1ccc2c(=O)[nH]c(COC(=O)c3[nH]c(C)c(C(C)=O)c3C)nc2c1 -0.418%
CC(C)(C)c1cc2cccnc2n1Cc1ccccc1 -0.512%
COc1cc(-c2noc(C)c2/C=C/c2ccc(N)cc2)cc(OC)c1OC 23.7%
c1cc2c(cc1C1=Nn3c(nnc3C3CCCCC3)SC1)OCO2 18.3%
COc1ccc(NC(=O)CSc2ccc(-c3cccs3)nn2)c(OC)c1 11.2%
CC(=O)COc1ccc2c3c(c(=O)oc2c1C)CCCCC3 18.1%
c1ccc(-c2cc(N3CCCCC3)ncn2)cc1 0.372%
CN(CCOc1ccccc1)CC(=O)Nc1ccc(Cl)cc1[N+](=O)[O-] 8.53%
CC1COC(Cn2c3ccccc3c3ccccc32)O1 (configuration not stated) 12.7%
CC(N=Cc1nc(-c2ccccc2)oc1O)c1ccccc1 (configuration not stated) 0.223%
Cc1nc(C)c(-c2csc(Nc3ccc(O)cc3C)n2)s1 0.131%
C=CCOc1nc2c(c(=O)n(C)c(=O)n2C)n1Cc1ccccc1Cl 4.97%
Cc1cccc(-c2c3c(=O)n(C)c(=O)n(C)c3cn2C(C)C)c1 17.2%
COc1cc2c(cc1OC)/C(=C/C(=O)c1ccccc1)NCC2 26.6%
COC(=O)c1cc(NC2c3ncccc3C(=O)N2Cc2ccccc2)cc(C(=O)OC)c1 (configuration not stated) -0.366%
CCCc1nc(SCC(=O)c2ccc(OC)cc2)c2ccccc2n1 6.34%
COc1ccc2c(CN(C)Cc3ccccc3)cc(=O)oc2c1 1.91%
COCCCC/C(=N\OCCN)c1ccc(C(F)(F)F)cc1 24.7%
COc1ccc(/C=N/Nc2snc(SC)c2C#N)cc1OC 13.7%
CCOC(=O)C1CCN(c2nc3c(C)cccn3c(=O)c2/C=C(\C#N)S(=O)(=O)c2ccccc2)CC1 6.54%
O=C(CNC1CCCC1)Nc1ccc(N2CCCCCC2)cc1 3.15%
COc1cc2c(cc1OC)-c1cc(OCCN3CCOCC3)nc(=O)n1CC2 11.2%
O=C(C1CCCN(Cc2ccccc2)C1)N1CCCCC1 (configuration not stated) -0.604%
COC(=O)C1=C(C)NC2=C(C(=O)CCC2)C1c1ccc(-c2ccsc2C(=O)OC)o1 (configuration not stated) 10.7%
O=C(c1ccccc1-c1nc(-c2ccc(Cl)cc2)no1)N1CCCC1 -0.765%
Cc1ccc(CNCCCSc2ncccn2)cc1 17.6%
CC(=O)Nc1ccc(CC(=O)NCCC(c2ccccc2)c2ccccc2)cc1 -0.669%
COc1ccc(Cc2noc(-c3ccc(OC)c(OC)c3)n2)cc1OC 7.14%
Cc1ccccc1Nc1nc(N)nc(COC(=O)c2cccc(S(=O)(=O)N(C)C)c2)n1 7.48%
COc1cc(/C=N/NC(=O)c2cc(-c3ccccc3Cl)nc3ccccc23)cc(OC)c1O 10.5%
CN(C)C=Nc1c(I)cc(I)c(CCC(=O)O)c1I 0.326%
COC(=O)CCSCC(=O)N1N=C(c2ccc(OC)cc2)CC1c1cccc(OC)c1OC (configuration not stated) 3.02%
CCn1c2ccc(F)cc2c2nnc(SCCN3CCOCC3)nc21 9.39%
CC(C)(C)Nc1nc(Cl)nc(NCc2ccccc2)n1 -0.349%
COc1cccc(Cn2c(N)c(C#N)c3nc4ccccc4nc32)c1OC 7.89%
Nc1ccc(S(=O)(=O)NC(=O)c2ccccc2)cc1 -0.525%
O=C(O)Cn1c(C(=O)Nc2nc(-c3ccccc3Cl)cs2)cc2ccccc21 -0.419%
COc1ccccc1NC(=O)C(C)OC(=O)CCCc1c[nH]c2ccccc12 (configuration not stated) 1.94%
Cc1ccc(NC(=O)COc2ccc(CCO)cc2-n2nc3ccccc3n2)cc1C 27.2%
COc1ccc(Cn2c(SCC#N)nc3ccc(N4CCOCC4)cc3c2=O)cc1 19.6%
Cn1cncc1C#Cc1c(-c2ccsc2)sc2ccccc12 12.7%
CCOC(=O)c1c(NC(=O)Cn2cnc([N+](=O)[O-])n2)sc(C)c1C -0.609%
COCCn1c(SCC(=O)Nc2cc(OC)ccc2OC)nc2c(c1=O)SC(C)C2 (configuration not stated) 2.96%
CCNc1nn2ccccc2c1/C=C(\C#N)C(=O)OCC 3.68%
Cc1[nH]c2ccccc2c1/C=C/C(=O)c1ccncc1 3.27%
CCOC(=O)c1c(NC(=O)CN2C(=O)NC3(CCCCC3C)C2=O)sc(C)c1CC (configuration not stated) 7.96%
Cc1cc(Cl)c2oc(C(=O)N(CCO)Cc3ccccc3)c(C)c2c1 19.2%
N#Cc1c(Nc2ccccc2Cl)s[nH]c1=O -0.676%
F[B-](F)(F)COCc1ccccc1Br 15.4%
CCOc1ccc(OCC)c(NC(=O)CSc2nc3cccnc3n2C)c1 3.91%
COc1ccc(-c2coc3c(C(=O)NCc4ccc(OC)c(OC)c4)cccc23)c(C)c1 11.3%
Nc1ccc(Oc2cc(N)cc(Oc3ccccc3)c2)cc1 1.49%
Cc1cccc(-c2nc(C#N)c(N3CCCCCC3)o2)c1 10.5%
COc1cc2c(cc1OC)CN(C(=O)c1ccc(OC)c(S(=O)(=O)N3CCCC3)c1)CC2 4.14%
N#Cc1c(-c2ccco2)cc(C2CC2)nc1N 8.33%
COc1ccc(C(=O)Cc2ccccc2)cc1OC 1.93%
O=c1c2cc(Br)ccc2nc2n1CCCCC2 1.85%
O=C1C2CC=CCC2C(=O)N1c1ccc(NCCc2ccc(O)cc2)c([N+](=O)[O-])c1 (configuration not stated) 9.29%
CN1CCN(CCCNC(=O)c2ccc(/C=C3\Oc4ccccc4N(Cc4ccccc4F)C3=O)cc2)CC1 22.9%
COc1cc(NC(=O)c2ccccc2)c(OC)cc1NC(=O)CN1CCCCC1 2.27%
C/C(=N/OC(=O)C1CC12CCC2)c1ccc(Br)cc1 (configuration not stated) -0.501%
CCOc1ccc(CCNC(=O)COC(=O)COc2ccc(C(C)=O)cc2)cc1OCC -0.493%
Oc1ccc(NCc2ccccc2OCc2ccccc2F)cc1 3.23%
COc1ccc(NC(=O)C2(C)Cc3c(-c4cccc(C(F)(F)F)c4)ccnc3O2)cn1 (configuration not stated) 6.6%
CCSc1cc(C)nc2c(-c3ccccc3)c(C)nn12 4.39%
CCOc1ccccc1COC(=O)c1cccc(-n2cnnn2)c1 4.07%
COc1ccc2nc(SC(C(=O)c3ccccc3)c3ccccc3)nc(C)c2c1 (configuration not stated) 8.42%
Cc1ccc2oc(NC(=O)N3CCOCC3)cc(=O)c2c1 2.38%
COc1ccc(-c2c(C)nn3c(N)c(C#N)cnc23)cc1OC 12.2%
O=C(OCc1cccc(Cl)c1)c1cc([N+](=O)[O-])ccc1N1CCOCC1 8.42%
CC(=O)c1oc2ccccc2c1NC(=O)CN1CCCCC1 2.43%
COc1cc(NC(=O)C2CC(=O)NC3=C2C(=O)CCC3)c(OC)cc1Cl (configuration not stated) 2.45%
CCOC(=O)c1cc(-c2ccccc2)nn1Cc1cc(C)no1 0.573%
COc1ccc(NC(C)=O)cc1S(=O)(=O)Nc1ccc2c(c1)OCCO2 -0.925%
CCOC(=O)/C(=C\C=C1/Sc2ccccc2N1CC)C(C)=O 24.1%
Cc1ccc(CNC(=O)CN(C)S(=O)(=O)c2cccs2)cc1 -0.967%
COc1ccc(CNC(=O)c2cccc3c(-c4cnn(C)c4)coc23)cc1OC 18.7%
COc1ccc(/C=N/n2c(=S)n(C)c3ccccc32)cc1OC 14.7%
CCOc1ccc(C(C)=O)cc1COC(=O)CCc1cc(OC)c(OC)c(OC)c1 1.66%
CCCOc1ccccc1/C=C1\SC(N2CCCCC2)=NC1=O 6.39%
Cc1ccccc1Nc1nc(N)nc(CN(C)Cc2ccccc2Cl)n1 3.15%
COc1ccc(C2=Nn3c(nnc3-c3ccccn3)SC2)cc1OC 29.2%
Cc1ccccc1Nc1c(-c2ccc(N3CCOCC3)cc2)nc2cnccn12 3.07%
O=C(c1cc2c(s1)CCCCC2)N1CCN(c2ncccn2)CC1 0.382%
COc1cc(O)c(CCC(=O)c2cc(OC)c(OC)c(OC)c2)c(OC)c1 4.11%
COc1ccc(/C=N/NC(=O)C(C)n2cnc3ccccc3c2=O)cc1OC (configuration not stated) 10%
COc1ccc(OC)c(Nc2nc(-c3sc(C)nc3C)cs2)c1 21.7%
CCOC(=O)c1c(C)c(C(=O)N2CCCCCC2)c(C)n1C 2.73%
C=CCSc1nc2c(c(=O)[nH]c(=O)n2C)n1CC 6.88%
CCOC(=O)C1CCN(C(=O)c2cc3c(-c4ccc(OC)c(OC)c4)nn(C)c3s2)CC1 21.4%

Potency, active:
COc1ccc(C2=Nn3c(nnc3-c3ccccc3Cl)SC2)cc1OC1CCOC1 (configuration not stated) 13 µM
Cc1nc(N2CCOCC2)c2cc(-c3ccccc3)sc2n1 8.2 µM
CCn1nc(NC(=O)c2cccnc2)c2cc3ccccc3nc21 20.6 µM
